In all, about 230,000 compounds went through this assay and fewer than 10 were called active. The shares of active, inactive and inconclusive entries below differ from those in the screen. The call rests on the fitted dose curve; in most records, active means well fitted curve in the direction sought with a large enough effect; inconclusive means small, poorly fitted or top-dose-only effect, or effect the other way, or another doubt; inactive means no such curve, though single readings can be large or run the other way. No potency is given beside an inconclusive call; the fits are too rough.
Target: Runt-related transcription factor 1 (Homo sapiens) + Core-binding factor subunit beta (Homo sapiens) (UniProt Q01196+Q13951)
Assay: qHTS Assay for Compounds Blocking the Interaction Between CBF-beta and RUNX1 for the Treatment of Acute Myeloid Leukemia; on activity, negative = inhibition: % of control where 0% means no effect
Conditions: AlphaScreen CBFb-His/RUNX1-biotin binding, biochemical; activity, negative = inhibition: at 59.8 µM (top of the series) unless noted
Procedure, shortened: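 Interaction loss through any mechanism counts as activity. Pre-formed complex of His-CBF-beta and biotin-RUNX1 (30 nM apiece) is incubated with compound 15 min, then with 50 ng nickel and 50 ng streptavidin beads for 90 min before AlphaScreen detection.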

Chain of UniProt Q01196 (Q01196 whole entry, looked up): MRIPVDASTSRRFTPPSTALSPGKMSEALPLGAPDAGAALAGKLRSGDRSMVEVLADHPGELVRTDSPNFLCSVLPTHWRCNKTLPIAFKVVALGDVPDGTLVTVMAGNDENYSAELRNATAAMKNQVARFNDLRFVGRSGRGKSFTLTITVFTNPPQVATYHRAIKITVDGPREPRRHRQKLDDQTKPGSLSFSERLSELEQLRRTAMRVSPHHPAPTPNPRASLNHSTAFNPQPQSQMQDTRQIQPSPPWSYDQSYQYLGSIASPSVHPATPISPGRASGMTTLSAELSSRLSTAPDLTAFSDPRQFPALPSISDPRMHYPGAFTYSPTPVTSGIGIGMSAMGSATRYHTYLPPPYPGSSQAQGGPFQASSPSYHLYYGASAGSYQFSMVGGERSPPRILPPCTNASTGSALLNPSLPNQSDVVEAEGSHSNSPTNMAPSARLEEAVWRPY
Chain of UniProt Q01196 (Q13951 whole entry, looked up): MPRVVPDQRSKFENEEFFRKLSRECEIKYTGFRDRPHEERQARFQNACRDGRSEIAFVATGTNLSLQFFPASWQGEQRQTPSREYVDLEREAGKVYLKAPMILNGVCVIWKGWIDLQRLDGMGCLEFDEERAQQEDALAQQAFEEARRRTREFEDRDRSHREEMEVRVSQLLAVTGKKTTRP

Structure (SMILES) | Potency | activity, negative = inhibition
O=C(c1cnn(C(=O)COc2ccccc2F)c1)c1cc(F)ccc1O | inconclusive [inhibitor, single point] | 
CCOc1ccc(N2C(=O)C3C(c4ccccc4)=NN(c4ccccc4)C3C2=O)cc1 (configuration not stated) | inconclusive [activator, full curve, poor fit] | 
O=C(O)CC/C(=N/Nc1ncc(C(F)(F)F)cc1Cl)C(=O)O | inconclusive [inhibitor, single point] | 
COc1cccc(-n2ccnc2SCC(=O)Nc2cc(OC)ccc2OC)c1 | inconclusive [inhibitor, single point] | 
Cc1cc(C)nc(Nc2ccc(N3CCCC3)cc2)n1 | inconclusive [inhibitor, partial curve] | 
COc1ccc(CNC(=O)CN(c2ccc(OC)cc2)S(=O)(=O)c2c(C)nn(C)c2C)cc1 | inconclusive [activator, single point] | 
COC(=O)c1ccccc1NC(=O)CSc1nc(N)cc(=O)[nH]1 | inconclusive [inhibitor, single point] | 
CC(=O)N[C@@H](CC(=O)O)C(=O)O | inactive | 
Nc1nonc1-n1nnc(C(=O)N/N=C/c2cc(Br)ccc2O)c1CSC1=NCCS1 | inconclusive [inhibitor, partial curve] | 
CN(C)CCN(C)Cc1ccc2c(c1)Cc1ccccc1-2 | inactive | 
S=C(Nc1ccccc1)Nc1nccs1 | inconclusive [inhibitor, full curve, poor fit] | 
C[n+]1cccc2cccc([O-])c21 | inconclusive [inhibitor, single point] | 
CCSC1=C(C#N)C(c2ccc(C)o2)CC(=O)N1 (configuration not stated) | inactive | 
CCOC(=O)C1Sc2ccccc2NC1=O (configuration not stated) | inconclusive [inhibitor, single point] | 
O=C(O)CC1S/C(=N/N=C/c2ccccn2)NC1=O (configuration not stated) | inconclusive [inhibitor, partial curve] | 
Cc1cccc(NCc2cc(Cl)cc(Cl)c2O)n1 | inactive | 
O=Cc1cc(N=Nc2cccc(C(=O)O)c2)ccc1O | inconclusive [activator, single point] | 
O=C(Nc1ccc2c(c1)OCCO2)c1cccc2nc3ccccc3nc12 | inconclusive [inhibitor, single point] | 
CCCCCCCCCCC[C@@H](C[C@@H]1OC(=O)[C@H]1CCCCCC)OC(=O)[C@H](CC(C)C)NC=O | inconclusive [activator, single point] | 
Cc1cc(=O)[nH]c(N/N=C/c2cc(C)n(-c3ccccc3)c2C)n1 | inconclusive [inhibitor, single point] | 
COc1cccc(/C=N/NC(=O)c2ccc(=O)n(C)c2)c1O | inconclusive [inhibitor, partial curve] | 

Structure (SMILES) | Potency | activity, negative = inhibition
COc1ccc(-c2cc(C(=O)OC3CCOC3=O)c3ccccc3n2)cc1OC (configuration not stated) | inconclusive [activator, partial curve] | 
CCOC(=O)c1cccc(NC(=O)c2cc3sccc3n2C)c1 | inactive | 
COc1cc(C(=O)NCc2nnc(SCC(=O)Nc3cc(C)on3)o2)cc(OC)c1OC | inconclusive [inhibitor, single point] | 
COc1ccc(-c2nn(-c3ccccc3)cc2C(=O)NC(=S)NNC(=O)c2ccncc2)cc1 | inconclusive [inhibitor, single point] | 
CNC(=S)N/N=C/c1cn(Cc2c(F)cccc2Cl)c2ccccc12 | inconclusive [inhibitor, single point] | 
O=C(NCc1ccco1)c1cnn2c(C(F)F)cc(-c3ccccc3)nc12 | inactive | 
COc1ccc(Nc2nnc(SCC(=O)/C=C3/N(C)c4ccccc4C3(C)C)s2)cc1 | inconclusive [inhibitor, partial curve] | 
CCn1nc(NC(=O)c2ccccn2)c2cc3cccc(C)c3nc21 | inconclusive [activator, partial curve] | 
COc1ccc(-c2ccc(=N)n(CCCC(=O)O)n2)cc1 | inconclusive [activator, full curve] | 
CCCn1nc(NC(=O)c2ccco2)c2cc3cc(C)ccc3nc21 | inconclusive [activator, partial curve] | 
O=C(OC(C(=O)Nc1ccc(Cl)cc1C(F)(F)F)c1ccccc1)c1c(Cl)cccc1Cl (configuration not stated) | inconclusive [activator, single point] | 
CN[C@@H]1C[C@H](c2ccc(Cl)c(Cl)c2)c2ccccc21 | inactive | 
CC(C)(S)[C@@H](N)C(=O)O | inconclusive [activator, full curve] | 
O=C1NC(=O)N(Cc2ccco2)C(=O)/C1=C\c1ccc(-c2ccc(F)cc2)o1 | inconclusive [inhibitor, single point] | 
S=c1[nH]nc(-c2ccccn2)n1/N=C/c1ccco1 | inconclusive [inhibitor, partial curve] | 
C=C/C(=C/C(=O)C[C@H](C)C[C@@H](C)CC[C@H](O)[C@H](C)C(=O)C[C@@H](O)[C@H](C)[C@@H](C)OC(=O)C[C@@H](O)C1=C(C)C(=O)OC1=O)CC |  | inactive: 1.71% [at 13.1 µM]
COc1ccc(C2CC(c3cccs3)=NN2c2nc(C)c(C(C)=O)s2)cc1OC (configuration not stated) | inconclusive [activator, full curve, poor fit] | 
O=C(Nc1ccc(N2CCCC2)c(Cl)c1)c1ccc([N+](=O)[O-])o1 | inconclusive [inhibitor, partial curve] | 
COc1ccc(CN=C2NN=C(c3cccc(OC)c3)CS2)cc1 | inconclusive [inhibitor, partial curve] | 
Cc1nc(N2CCCCC2)sc1C(=O)c1ccc(Cl)c([N+](=O)[O-])c1 | inconclusive [inhibitor, single point] | 
COCCn1c(C)cc(C(=O)CSc2n[nH]c(N)n2)c1C | inconclusive [inhibitor, single point] | 

From PubChem BioAssay AID1477 (National Center for Advancing Translational Sciences (NCATS), 2009)
